In patent publication US8501450B2, “Hepatitis C virus variants” (priority 2005, dated 2013):
Values joined by “and” are separate entries in the source; they are usually repeats but may differ in a detail not shown here. Identical values can stand only once.

Legend:
Assay in all cases: Enzymatic IC50 assay, HCV NS3 serine protease domain
[1] = target: HCV NS3 protease V36M, R155T double mutant (Hepatitis C virus genotype 1a, UniProt P27958, R1181T/V1062M)
[2] = target: HCV NS3 protease V36M, R155K double mutant (Hepatitis C virus genotype 1a, UniProt P27958, R1181K/V1062M)
[3] = target: HCV NS3 protease V36M mutant (Hepatitis C virus genotype 1a, UniProt P27958, V1062M)

With `COc1ccc2c(O[C@@H]3C[C@H]4C(=O)N[C@]5(C(=O)O)C[C@H]5/C=C\CCCCC[C@H](NC(=O)OC5CCCC5)C(=O)N4C3)cc(-c3csc(NC(C)C)n3)nc2c1` [BILN 2061] the IC50 [1] was 729 nM, the IC50 ([2]; IC50, V36M, R155K protease, each line a patient-specific clone) was > 840 nM and the Fold change ([2]; V36M, R155K, enzyme IC50 vs genotype 1a HCV-H reference strain) was >183 fold. The IC50 ([3]; IC50, V36M protease, each line a patient-specific clone) was 2 nM and 2.3 nM and the Fold change ([3]; V36M, enzyme IC50 vs genotype 1a HCV-H reference strain) was 0.5 fold.
